# Reference: the supplement of paper PMC10037445
# Values joined by “and” are separate entries in the source; they are usually repeats but may differ in a detail not shown here. Equal values may be shown once. In all, about 2,900 compounds were measured (“IRF Lucia reporter activity, fold change vs agonist alone”: median about 0.9, highest 2% from about 2.8 on). This is one part of the list.
# What was measured:
# RAW-Dual [1] = test: IRF Lucia reporter activity, fold change vs agonist alone; cytotoxicity flag (confluency mask): not cytotoxic; higher = enhanced IRF activity
# In short: (§1)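 Supernatant from RAW-Dual macrophages was read after 20 hours for IRF by QuantiLuc luminescence and for NF-κB by QuantiBlue absorbance at 620 nm. The cells (50,000 cells/well in DMEM, 384-well plates, 37 °C, 5% CO2) had received 50 nL of library stock by pin tool and, 1 h later, a PRR agonist. Reporter activity is expressed relative to agonist-alone wells as fold change, and wells were flagged cytotoxic if IncuCyte confluency was under 70% of agonist controls in both mask sets.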
# RAW-Dual [2] = test: IRF Lucia reporter activity, fold change vs agonist alone; higher = enhanced IRF activity; details: library stock concentration (final ~1000-fold dilution): 10 mM, agonist: MPLA (TLR4) […]
# In short: as §1
# RAW-Dual [3] = test: IRF Lucia reporter activity, fold change vs agonist alone; cytotoxicity flag (confluency mask): cytotoxic (confluency <70% of control); higher = enhanced IRF activity
# In short: as §1
# [4] = agonist: 3'3'-cGAMP (STING) 10 ug/mL
# [5] = cytotoxicity flag (confluency mask): not cytotoxic
smiles,measurement,setting,value
C=C(C)C1CC=C(C)CC1 (centres undefined) (library stock concentration (final ~1000-fold dilution): 10 mM),IRF Lucia reporter activity,RAW-Dual [1]; [4],0.703
same,IRF Lucia reporter activity,RAW-Dual [1]; agonist: LPS (TLR4) 0.1 ug/mL,0.701
CC(C)(O)CNc1ncc(-c2ccnc(Nc3ccncc3)n2)c(CC2CC2)n1 (library stock concentration (final ~1000-fold dilution): 10 mM),IRF Lucia reporter activity,RAW-Dual [1]; [4],0.364
same,IRF Lucia reporter activity,RAW-Dual [1]; agonist: LPS (TLR4) 0.1 ug/mL,10.3
CN(C)CCC=C1c2ccccc2C(C)(C)c2ccccc21.Cl,IRF Lucia reporter activity,RAW-Dual [2]; cytotoxicity flag (confluency mask): cytotoxic (confluency <70% of control),1.88
CN(C)CCC=C1c2ccccc2C(C)(C)c2ccccc21.Cl (library stock concentration (final ~1000-fold dilution): 10 mM),IRF Lucia reporter activity,RAW-Dual [3]; [4],0.653
same,IRF Lucia reporter activity,RAW-Dual [3]; agonist: LPS (TLR4) 0.1 ug/mL,1.37
CC(C)(C)C(O)/C=C/c1ccc2c(c1)OCO2 (centres undefined),IRF Lucia reporter activity,RAW-Dual [2]; [5],1.26
CC(C)(C)C(O)/C=C/c1ccc2c(c1)OCO2 (centres undefined) (library stock concentration (final ~1000-fold dilution): 10 mM),IRF Lucia reporter activity,RAW-Dual [1]; [4],1.1
same,IRF Lucia reporter activity,RAW-Dual [1]; agonist: LPS (TLR4) 0.1 ug/mL,1.43
Nc1nc(F)nc2c1ncn2C1OC(COP(=O)(O)O)C(O)C1O (centres undefined) (library stock concentration (final ~1000-fold dilution): 10 mM),IRF Lucia reporter activity,RAW-Dual [1]; [4],1
same,IRF Lucia reporter activity,RAW-Dual [1]; agonist: LPS (TLR4) 0.1 ug/mL,1.24
Nc1nc(F)nc2c1ncn2C1OC(COP(=O)(O)O)C(O)C1O (centres undefined),IRF Lucia reporter activity,RAW-Dual [2]; [5],1.03
O=C(Nc1ccc2c(O)cc(S(=O)(=O)O)cc2c1)Nc1ccc2c(O)cc(S(=O)(=O)O)cc2c1,IRF Lucia reporter activity,RAW-Dual [2]; [5],1.01
O=C(Nc1ccc2c(O)cc(S(=O)(=O)O)cc2c1)Nc1ccc2c(O)cc(S(=O)(=O)O)cc2c1 (library stock concentration (final ~1000-fold dilution): 10 mM),IRF Lucia reporter activity,RAW-Dual [1]; [4],0.902 and 0.943
same,IRF Lucia reporter activity,RAW-Dual [1]; agonist: LPS (TLR4) 0.1 ug/mL,1.19 and 1.01
Cn1cnc(N)c2ncnc1-2,IRF Lucia reporter activity,RAW-Dual [2]; [5],1.12
Cn1cnc(N)c2ncnc1-2 (library stock concentration (final ~1000-fold dilution): 10 mM),IRF Lucia reporter activity,RAW-Dual [1]; [4],1.01
same,IRF Lucia reporter activity,RAW-Dual [1]; agonist: LPS (TLR4) 0.1 ug/mL,0.983
O=C(O)c1cc(O)c(O)c(O)c1,IRF Lucia reporter activity,RAW-Dual [2]; [5],1.07
O=C(O)c1cc(O)c(O)c(O)c1 (library stock concentration (final ~1000-fold dilution): 10 mM),IRF Lucia reporter activity,RAW-Dual [1]; [4],1.09 and 0.635
same,IRF Lucia reporter activity,RAW-Dual [1]; agonist: LPS (TLR4) 0.1 ug/mL,1.24 and 0.448
CC1OC(OC2C(O)CC(OC3C(O)CC(OC4CCC5(C)C(CCC6C5CC(O)C5(C)C(C7=CC(=O)OC7)CCC65O)C4)OC3C)OC2C)CC(O)C1O (centres undefined) (library stock concentration (final ~1000-fold dilution): 10 mM),IRF Lucia reporter activity,RAW-Dual [1]; [4],0.876
same,IRF Lucia reporter activity,RAW-Dual [1]; agonist: LPS (TLR4) 0.1 ug/mL,0.86
CC1OC(OC2C(O)CC(OC3C(O)CC(OC4CCC5(C)C(CCC6C5CC(O)C5(C)C(C7=CC(=O)OC7)CCC65O)C4)OC3C)OC2C)CC(O)C1O (centres undefined),IRF Lucia reporter activity,RAW-Dual [2]; [5],0.709
C=C(C)C1CCC2(C(=O)O)CCC3(C)C(CCC4C5(C)CCC(OC(=O)CC(C)(C)C(=O)O)C(C)(C)C5CCC43C)C12 (centres undefined) (library stock concentration (final ~1000-fold dilution): 10 mM),IRF Lucia reporter activity,RAW-Dual [3]; [4],1.18
same,IRF Lucia reporter activity,RAW-Dual [3]; agonist: LPS (TLR4) 0.1 ug/mL,0.86
CC(C)NCCCn1c(Sc2cc3c(cc2I)OCO3)nc2c(N)ncnc21 (library stock concentration (final ~1000-fold dilution): 10 mM),IRF Lucia reporter activity,RAW-Dual [1]; [4],0.411
same,IRF Lucia reporter activity,RAW-Dual [1]; agonist: LPS (TLR4) 0.1 ug/mL,1.42
Cc1cccc(Nc2nc(-c3ccncc3)cs2)c1,IRF Lucia reporter activity,RAW-Dual [2]; [5],0.644
Cc1cccc(Nc2nc(-c3ccncc3)cs2)c1 (library stock concentration (final ~1000-fold dilution): 10 mM),IRF Lucia reporter activity,RAW-Dual [1]; [4],0.0993
same,IRF Lucia reporter activity,RAW-Dual [1]; agonist: LPS (TLR4) 0.1 ug/mL,0.805
CC1(C)CC(=O)c2c(C(F)(F)F)nn(-c3ccc(C(N)=O)c(NC4CCC(O)CC4)c3)c2C1 (centres undefined),IRF Lucia reporter activity,RAW-Dual [2]; [5],1.11
CC1(C)CC(=O)c2c(C(F)(F)F)nn(-c3ccc(C(N)=O)c(NC4CCC(O)CC4)c3)c2C1 (centres undefined) (library stock concentration (final ~1000-fold dilution): 10 mM),IRF Lucia reporter activity,RAW-Dual [1]; [4],1.07
same,IRF Lucia reporter activity,RAW-Dual [1]; agonist: LPS (TLR4) 0.1 ug/mL,0.598
C=C(C)CSc1nnc2c(n1)[nH]c1ccccc12 (library stock concentration (final ~1000-fold dilution): 10 mM),IRF Lucia reporter activity,RAW-Dual [1]; [4],0.921
same,IRF Lucia reporter activity,RAW-Dual [1]; agonist: LPS (TLR4) 0.1 ug/mL,1.16
COCCOc1cnc2ccn(C(C)c3nnc4c(F)cc(-c5cnn(C)c5)cn34)c(=O)c2c1 (centres undefined) (library stock concentration (final ~1000-fold dilution): 10 mM),IRF Lucia reporter activity,RAW-Dual [1]; [4],0.911
same,IRF Lucia reporter activity,RAW-Dual [1]; agonist: LPS (TLR4) 0.1 ug/mL,0.469
O=c1ncnc2[nH][nH]cc1-2,IRF Lucia reporter activity,RAW-Dual [2]; [5],0.976
O=c1ncnc2[nH][nH]cc1-2 (library stock concentration (final ~1000-fold dilution): 10 mM),IRF Lucia reporter activity,RAW-Dual [1]; [4],1.04
same,IRF Lucia reporter activity,RAW-Dual [1]; agonist: LPS (TLR4) 0.1 ug/mL,0.962
CC(C)(C)NC(=O)c1cncn1C1CCN(c2ccc(-c3nnc(C(F)(F)F)o3)cn2)CC1 (library stock concentration (final ~1000-fold dilution): 10 mM),IRF Lucia reporter activity,RAW-Dual [1]; [4],1.33
same,IRF Lucia reporter activity,RAW-Dual [1]; agonist: LPS (TLR4) 0.1 ug/mL,3.77
